Assay results published in the supplement of paper PMC3334620.
In all, about 33,000 sequences were measured (“E-score (-0.5 to 0.5)”: median about -0.017, highest 2% from about 0.3 on). This is one part of the list.

biological target: T1, Sut1 (UniProt P53032); assay: PBM E-score (8-mer binding enrichment) (E-score (-0.5 to 0.5)); higher = stronger / more preferred TF binding; most listed sequences are background and not binding sites; settings: protein concentration: 200 nM; construct: GST-full length
T1 sequence: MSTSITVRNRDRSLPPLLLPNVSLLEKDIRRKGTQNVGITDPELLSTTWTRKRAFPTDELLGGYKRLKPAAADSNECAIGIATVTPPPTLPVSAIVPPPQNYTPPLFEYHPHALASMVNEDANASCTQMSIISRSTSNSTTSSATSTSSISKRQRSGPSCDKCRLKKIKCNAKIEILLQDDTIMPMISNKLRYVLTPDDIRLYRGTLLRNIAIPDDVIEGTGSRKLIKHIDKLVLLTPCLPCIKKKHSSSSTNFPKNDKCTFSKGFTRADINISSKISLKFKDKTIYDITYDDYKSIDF
Method in brief: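 GST-tagged yeast TFs (full-length or DNA-binding domain) were made by PURExpress in vitro transcription/translation and applied at about 100-200 nM to universal all-10-mer Agilent arrays. The arrays were made double-stranded by primer extension, on fresh or once-stripped slides. Bound protein was detected with fluorescent anti-GST, and scans were normalised with masliner. Each ungapped eight-base word, pooled with its reverse complement, received an E-score (modified Wilcoxon-Mann-Whitney statistic) from the Universal PBM Analysis Suite.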

Sequence	PBM E-score
ACAGCTTA	0.0534
CGGCATCA	-0.106
GCTGGTAA	-0.104
GTAAAACA	0
AGTAGTTA	0.182
CTCGAGAA	-0.132
ATGCTAGG	-0.072
CGCTATGA	0.0878
AGTCGGAT	0.173
ACCGCTAC	-0.18
AGTCGCCC	-0.182
CGAGCCCA	-0.321
CGGCGTCC	-0.031
CAATGAGC	-0.0381
AAGTCATT	-0.00286
AGAGGTAG	-0.0764
TATAAAAA	0.318
AAGCCTAA	0.15
ATGCATGA	0.128
CTAGACTC	-0.0737
CAATTGTG	0.0225
AAGTCTCC	-0.128
CATGAGCA	-0.0355
ATACCGTC	-0.0232
AAACTCAT	0.204

Sequence	PBM E-score
AGCCACAC	-0.124
CTGATACA	-0.0307
CGACTACG	-0.0291
CGCAGATC	-0.224
CGAGTCAA	-0.0592
TAAACTCA	0.107
CGGCGCCG	0.221
AGACATGC	-0.188
AACTCTCC	0.161
CGAAACAG	0.0566
TGCGTGAA	0.134
AAGGGGTA	-0.214
AACACCGA	0.204
GCTACCAC	-0.205
CAGCTGTC	0.0125
AGGTGCAT	-0.136
AATCTACT	0.202
GCATCGAA	0.011
GCATCACA	-0.0805
GTCTTGCA	-0.0831
AGCTCGCC	-0.16
ATTCGTGG	-0.137
CTGCGGGA	-0.288
GCCTACAC	-0.194
AGACCGTG	-0.103

Sequence	PBM E-score
ACGTGAGC	-0.259
GAATCCGC	-0.0771
ACCCAGGG	-0.308
TAACATCA	0.171
CCGACCGC	-0.2
TAGGACGA	-0.0602
GTCTGACA	0.0529
ACGCGTCA	-0.0969
CGAATCCA	-0.00116
ATTTAAGC	0.173
GCAGCCTA	-0.122
GTGCATTA	0.053
TGTATACA	0.255
AGCATCTA	0.0729
GGCACCTA	-0.0802
CACATCGG	-0.119
AGTCGAGC	-0.205
AGTAATTC	0.307
AAACATTG	0.0467
AGAGAATA	0.147
ACACCCAG	-0.255
TCCCTTCA	-0.111
AACATCGG	0.0588
CTATCCAA	0.057
AATAAGGG	-0.0871

Sequence	PBM E-score
CTGTCCTC	-0.065
ACGCTACG	-0.131
GACGTAGC	-0.198
CGTAAACA	0.0673
GTATGTGA	0.124
GTCAGGTA	-0.111
ATAGAGCA	0.0192
CATATGTA	0.0389
TAGCTTCA	-0.0155
CGACATGA	-0.0559
GGACCAAC	0.00139
AGCTGACG	-0.00958
ATATTCTA	0.185
AAATGGGC	0.0434
CGAGGTAC	-0.0755
TAGTGATA	-0.118
CTACTTCC	0.00499
CTTCATTA	0.196
GGTGATGA	-0.0168
CAACACCA	-0.0101
AAACGAAC	0.244
CGCTACCA	-0.108
GGAGATGA	0.245
TACGAGCA	-0.095
CCTTTTCC	-0.0113

Sequence	PBM E-score
GTTGCTGA	0.0547
ACAAACAC	0.185
CATCAACC	0.00545
CATTTTGC	0.154
GGTCAACA	0.0614
AGGGATAC	-0.295
AACCAGCG	0.00604
GTTCATGA	0.16
CTCAATAC	0.241
CATTAGCG	-0.00829
AGCGCATG	-0.208
AGAGATGA	0.0449
ATGCTCAG	0.0264
AGCAGAAA	0.175
AACCCAAC	-0.0321
ACTAGAAA	0.114
GATTCCTA	0.026
TAGTCCCA	-0.21
ACTTTGAC	0.052
ATGAAGCA	0.0563
GAAAGACA	0.29
CGCATGGC	0.0513
CGGCAATC	0.0237
GATGACGC	-0.0987
AGTATTTG	0.107

Sequence	PBM E-score
AGAGCAAC	-0.169
ACGTAACT	0.009
CCGGATCG	0.123
ATTGCGGG	-0.0205
AACGTTAT	0.17
ACATACCA	-0.13
CTCATTCC	0.0207
GGTCGGGA	-0.106
GCAGTTCA	-0.0012
CGTTCTGA	-0.156
CCGGGTTA	0.104
CAGGTTTC	0.121
AGAACTCG	-0.03
AGCGCTAT	-0.0176
AAGACCGA	0.238
AAGCGCTC	0.00993
CTGTGAGA	-0.0848
GTGTGCCA	-0.129
ATTATCCG	0.149
AAGTCAAT	0.178
ATTCCTAC	0.0631
AGTCACGA	-0.0583
CTCTCACA	0.0236
CCGGAGGC	0.156
CGTTACTA	0.0702

Sequence	PBM E-score
AGACATCC	-0.197
AGCCATAA	-0.0493
GAGACTTA	-0.0721
AAGCGTAA	0.057
CTCCATGA	0.043
GACATATA	0.233
TCAAACGA	0.00602
CACGGACA	0.153
TACTGCGA	-0.113
AGGCCCCT	-0.286
CATTTTAC	0.286
ATTCATTC	0.216
GCCTGCTA	-0.0423
CCACCCAC	-0.191
AGTGAGGC	-0.0565
AGCACGAA	0.0707
GTAAGTAC	0.0786
CTTATGCA	0.0449
AGATTACC	0.18
ACCAAATC	0.019
AGGTTCTC	0.164
CTTCGGCA	0.132
CCTCCCAC	-0.0727
TAATGGTA	0.182
ATCTGGCC	-0.162

Sequence	PBM E-score
GTCTTGTA	0.0183
ATACCGCC	-0.0853
TAATTGCA	0.148
GTCTAGAC	-0.28
GCAGCTTA	-0.137
CCCCAAGA	-0.154
ACGAGTTA	0.0555
ATTGTATG	0.175
AATGCCTC	-0.143
CAGCCGTC	-0.13
CGCTATTC	0.117
TAGTAACA	0.0104
AAATTGTA	0.194
ACTTCTGA	-0.136
CAAACAAC	0.242
ATAAACCC	0.0489
GTAAGCTA	0.226
ACTACCTC	-0.0526
TAAGCCGA	0.117
AAGTGAGC	-0.0565
ACGACCTG	-0.28
CCCACACA	-0.252
GGGGATGA	-0.278
ACTTACCC	0.0125
GACAACGC	-0.0716

Sequence	PBM E-score
AAGAATCG	0.219
CCTGATGA	0.0282
AGCGTCAG	-0.176
ACTTCGTA	0.0704
ATCAATTG	0.197
GCCACCCA	-0.184
CTCTTTGA	0.0351
ACCTCGCG	-0.208
ATGAAGGA	0.119
GAGTCATC	-0.0744
AACTCCTT	0.19
CTGGATGC	-0.275
CAATTGAA	0.0842
GTTATGAA	0.182
ACGTGCAG	-0.234
CCGTTGCA	0.0124
CGCTGAAG	-0.028
ACCTACCG	-0.0312
AAGCTACT	0.0425
